# From the supplement of paper PMC4967469
# IC50 is the fitted dose that halves viability relative to control wells, and lower means more sensitive; a limit (>, <) means that the fit lies beyond the doses tested. The AUC spans the tested range (256-fold, ending at the top dose) of the same fit; the more sensitive the line, the further below 1. For some assays here: Where the top dose is marked as inferred, it was calculated from the reported fits. For some assays here: An entry number marks a drug with two screens in the source, which often give different values.
# Experiments:
# Assay in all cases: Viability of human cancer cell lines after 72 h of drug (GDSC screen)
# Sunitinib = compound: CCN(CC)CCNC(=O)c1c(C)[nH]c(/C=C2\C(=O)Nc3ccc(F)cc32)c1C [Sunitinib]; settings: top dose 8 µM
# Experimental: (§1)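 Human cancer cell lines in 384-well plates, medium with 10% serum, drug for 72 h over a 256-fold dose range (nine 2-fold or five 4-fold steps up to the top dose). Adherent lines were fixed and stained with the nucleic acid dye Syto60, suspension lines read with resazurin; signal relative to control wells, capped at 0 and 100%. One two-parameter sigmoid per drug and line, fitted in a mixed model over all curves with the slope shared within a line.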
# GDC0941 = compound: CS(=O)(=O)N1CCN(Cc2cc3nc(-c4cccc5[nH]ncc45)nc(N4CCOCC4)c3s2)CC1 [GDC0941]; settings: top dose 4 µM; screen: GDSC drug entry 1527; top dose inferred
# Experimental: as §1
# AR-42 = compound: CC(C)[C@H](C(=O)Nc1ccc(C(=O)NO)cc1)c1ccccc1 [AR-42]; settings: top dose 5.12 µM; top dose inferred
# Experimental: as §1
# Pazopanib = compound: Cc1ccc(Nc2nccc(N(C)c3ccc4c(C)n(C)nc4c3)n2)cc1S(N)(=O)=O [Pazopanib]; settings: top dose 8 µM
# Experimental: as §1
# CEP-701 = compound: C[C@]12O[C@H](C[C@]1(O)CO)n1c3ccccc3c3c4c(c5c6ccccc6n2c5c31)CNC4=O [CEP-701]; settings: top dose 2 µM; top dose inferred
# Experimental: as §1
# MG-132 = compound: CC(C)C[C@@H](C=O)NC(=O)[C@H](CC(C)C)NC(=O)[C@H](CC(C)C)NC(=O)OCc1ccccc1 [MG-132]; settings: top dose 1 µM
# Experimental: as §1
# SB 216763 = compound: Cn1cc(C2=C(c3ccc(Cl)cc3Cl)C(=O)NC2=O)c2ccccc21 [SB 216763]; settings: top dose 10 µM; top dose inferred
# Experimental: as §1
Cell Line,AUC (Sunitinib),IC50 (Sunitinib),AUC (GDC0941),IC50 (GDC0941),AUC (AR-42),IC50 (AR-42),AUC (Pazopanib),IC50 (Pazopanib),AUC (CEP-701),IC50 (CEP-701),AUC (MG-132),IC50 (MG-132),AUC (SB 216763),IC50 (SB 216763)
"CP67-MEL (melanoma, adherent)",0.839,> 8000 nM,,,,,,,,,,,,
"HCE-4 (oesophagus, adherent)",0.838,4330 nM,0.558,351 nM,0.965,> 5120 nM,0.964,> 8000 nM,,,,,,
"HT-144 (melanoma, adherent)",0.829,5760 nM,0.82,2650 nM,0.981,> 5120 nM,0.857,7730 nM,,,,,,
"KP-N-RT-BM-1 (neuroblastoma, semi-adherent)",0.887,> 8000 nM,,,,,,,,,,,,
"P30-OHK (lymphoblastic leukaemia, suspension)",,,0.265,61.5 nM,0.16,37.7 nM,0.897,6960 nM,0.337,48.1 nM,0.991,> 1000 nM,0.991,> 10000 nM
"P32-ISH (Burkitt lymphoma, suspension)",,,0.746,1010 nM,0.336,127 nM,0.921,6870 nM,0.534,151 nM,0.793,336 nM,0.961,> 10000 nM
"PF-382 (T-cell lymphoblastic leukaemia, suspension)",,,0.983,> 4000 nM,0.31,102 nM,0.97,> 8000 nM,0.59,214 nM,0.672,176 nM,0.987,> 10000 nM
"RC-K8 (B-cell lymphoma, suspension)",,,0.979,> 4000 nM,0.7,1070 nM,0.959,> 8000 nM,0.965,> 2000 nM,0.927,> 1000 nM,0.993,> 10000 nM
"REH (B-cell leukaemia, suspension)",,,0.532,304 nM,0.39,162 nM,0.947,> 8000 nM,0.597,228 nM,0.987,> 1000 nM,0.974,> 10000 nM
"RF-48 (stomach, adherent)",,,0.932,> 4000 nM,0.255,57.5 nM,0.972,> 8000 nM,0.761,792 nM,0.812,616 nM,0.983,> 10000 nM
"RH-1 (rhabdomyosarcoma, adherent)",,,0.702,826 nM,0.338,123 nM,0.964,> 8000 nM,0.542,160 nM,0.95,> 1000 nM,0.991,> 10000 nM
"RL (B-cell lymphoma, suspension)",,,0.834,2300 nM,0.401,176 nM,0.986,> 8000 nM,0.633,281 nM,0.967,> 1000 nM,0.989,> 10000 nM
"ROS-50 (B-cell leukaemia, suspension)",,,0.983,> 4000 nM,0.539,420 nM,0.983,> 8000 nM,0.894,> 2000 nM,0.915,> 1000 nM,0.973,> 10000 nM
"Raji (Burkitt lymphoma, suspension)",,,0.887,3980 nM,0.449,234 nM,0.988,> 8000 nM,0.918,> 2000 nM,0.869,818 nM,0.99,> 10000 nM
"Ramos-2G6-4C10 (Burkitt lymphoma, suspension)",,,0.644,584 nM,0.371,149 nM,0.97,> 8000 nM,0.54,158 nM,0.735,259 nM,0.959,> 10000 nM
"SBC-1 (small cell lung carcinoma, suspension)",,,0.662,691 nM,0.503,325 nM,0.973,> 8000 nM,0.793,876 nM,0.94,> 1000 nM,0.953,> 10000 nM
"SCH (stomach, adherent)",,,0.827,2710 nM,0.963,> 5120 nM,0.968,> 8000 nM,0.792,982 nM,0.986,> 1000 nM,0.986,> 10000 nM
"SF126 (glioma, adherent)",,,0.907,> 4000 nM,0.619,692 nM,0.762,3010 nM,0.764,765 nM,0.738,313 nM,0.96,> 10000 nM
"SF539 (glioma, adherent)",,,0.81,1840 nM,0.607,611 nM,0.972,> 8000 nM,0.57,190 nM,0.989,> 1000 nM,0.935,> 10000 nM
"SHP-77 (small cell lung carcinoma, semi-adherent)",,,0.99,> 4000 nM,0.694,1040 nM,0.982,> 8000 nM,0.889,1850 nM,0.956,> 1000 nM,0.991,> 10000 nM
"SJSA-1 (bone, adherent)",,,0.89,> 4000 nM,0.693,1200 nM,0.964,> 8000 nM,0.589,226 nM,0.837,797 nM,0.942,> 10000 nM
"SK-MEL-1 (melanoma, suspension)",,,0.973,> 4000 nM,0.718,1200 nM,0.993,> 8000 nM,0.687,384 nM,0.993,> 1000 nM,0.993,> 10000 nM
"SK-MEL-2 (melanoma, adherent)",,,0.89,> 4000 nM,0.644,816 nM,0.974,> 8000 nM,0.4,65.7 nM,0.967,> 1000 nM,0.943,> 10000 nM
